Laboratory results as given in the supplement of paper PMC11417369.
This is one part of the list.

The sequences below were run on PF3D7_0420300 AP2 domain 1 (GST-tagged) (assay: gcPBM binding intensity (ln(normalized median fluorescence intensity)); higher = stronger DNA binding).
Summary of the method: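 Alexa488 anti-GST antibody, scanned at 488 nm, detected GST-tagged P. falciparum DNA-binding domains that had been expressed in E. coli and incubated for 1 h on an Agilent 4 × 180k array. The array carried primer-extended double-stranded 36-bp intergenic genomic probes and negative controls. Binding intensity is the highest Masliner-normalised natural-log median intensity across replicate spots of either orientation of each probe.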

| Sequence | gcPBM binding intensity (ln) |
| --- | --- |
| TATTAATTCTTAAATTTTTTTTTTTAATTCCTAGGA [CACACA_negctrl_site879] | 8.63 |
| TATATATAATACAGTATGCACTATTTTTATTAAAAA | 8.88 |
| CAATAATTTTTTAAATGTACTTTATTATAATTTAAT [XGTACX_site135] | 9.03 |
| GCCTTCCTTCTAAATGCACACGGAAAGTATAAATGT [CACACA_site8797] | 9.45 |
| GAATGAATCAATGTTTGTACTCAACAAATTATAAGG [XGTACX_site5122] | 9.13 |
| GTCTAACAACCAAACGCACACACACTAATAAAAAAA [CACACA_site8026] | 9.81 |
| TTTTCTTACATCTTATAAAAAAAAATATATATTATA [GTGCAC_negctrl_site118] | 8.77 |
| TAAATATATAAATACACACACATACACAAAAAAAAA [CACACA_site5890] | 10.1 |
| TATACACCCTAAAATACACACACACCCACCCATATA [CACACA_site9380] | 10.3 |
| TATAAACCAATGAACACACAAACATATATATATATA [CACACA_site3168] | 9.79 |
| TCTTTTTATATTTATTGTACATAAAAAATAAAACAT [XGTACX_site4073] | 9.05 |
| TTTTTTTTTCTTTCTTTCTTTTGTAAAAACCTCAAA [CACACA_negctrl_site723] | 8.89 |
| ATATGTATATATAAAAGTACGCGTAAAAAAAAAAAA [XGTACX_site5377] | 9.56 |
| TTTTTATAAATACACATAAATATATATATATATATA [TGCATGCA_negctrl_site393] | 8.95 |
| ACACAAAAAAATATATATATATATATATATATGTTA [CACACA_negctrl_site55] | 9.09 |
| AAAAAAAAAAAAAAATGTACATTTTGAAAGGATATA [XGTACX_site8217] | 9.07 |
| ATGCATTATTAGAATACACACCATACGCATATTTAT [CACACA_site4319] | 9.48 |
| TAAAGAAAAAGAGAATGTACATGAGAAAAGTATACT [XGTACX_site7472] | 9.6 |
| AGAAAAAAAAAAAAATGTACAGACTTTTTCTTATAA [XGTACX_site6481] | 8.93 |
| AATCACAACAGACACACACACAAAAAAAAAAAAAAA [CACACA_site1442] | 9.5 |
| ATATGTTATATAAATATATATATATATATATATATA [TGCATGCA_negctrl_site594] | 9.01 |
| TTAATATAATAGAAGTGTACACACATATTTATGTGT [XGTACX_site6672] | 9.6 |

| Sequence | gcPBM binding intensity (ln) |
| --- | --- |
| TATTTATAAACATACGCACACATTAAAATATATATA [CACACA_site6051] | 9.51 |
| ATATATATATATATAGTGCATAAAATAAGTTTCTAA | 9.18 |
| TAATAATAAAAATAAACACACATATATCTGTATTTA [CACACA_site5572] | 9.33 |
| GGTGGAAACAATTACACACACACAAAAAAAAAAAAA [CACACA_site3208] | 9.83 |
| CAATCATGGGTTTACACACACATGCATGTGAAAATT [CACACA_site1349] | 9.71 |
| ATTTTTGCAGTAATTAAATAGACAAAATGAAAAAAA [CACACA_negctrl_site1537] | 9.16 |
| GATGATAATAAATTTATATATAATATTATCTTATGT [GTGCAC_negctrl_site672] | 9.13 |
| CATATTAAAAATTATTGTACATATTAATGAATATAA [XGTACX_site2734] | 9.03 |
| AACCAAACAAATAAACGTACAAACATTACATATATT [XGTACX_site2265] | 9.67 |
| ACAATAAAGAAGTGTACACATATATCAATAAAAAAA [CACACA_site5228] | 9.39 |
| AAAATAATATTTAATACACACATAATTTTAATATAA [CACACA_site4588] | 9.46 |
| TACTTATATTATTTTATTATTAAATTTAAAACGAAA [CACACA_negctrl_site736] | 8.91 |
| ATATACACACAAAAACGTACACATATATATATGTAT [XGTACX_site2673] | 9.84 |
| GGTATAATAATATATAGTACACACAAAAATGGAAGT [XGTACX_site7058] | 9.94 |
| AAAAAAAAAAAAAGCACACATATAAATATGAATAAA [CACACA_site1393] | 9.41 |
| AAAAAAAAAAAAAACACACACATACACCCAAAAATG [CACACA_site4223] | 9.84 |
| TCAAAAATAAAGATCACACATATATATATATATATA [CACACA_site4381] | 9.2 |
| ATGTACAAAATAAGCACACACAAAAAAAAAAAAAAT [CACACA_site2998] | 9.91 |
| TCTAATTACAAAAACATACACACAAAAAAAAAAAAA [CACACA_site3783] | 9.74 |
| CCTATAAATGCATTCACACATATATATTTATATTAT [CACACA_site6086] | 9.26 |
| GTAAGAAACAGACACACACACATATATATATATATA [CACACA_site794] | 9.79 |
| GAACAGTTTGTTTAGTGTACTTTTTTTTTTTTTTTT [XGTACX_site8881] | 9.22 |
